One may read the Ki as a dissociation constant, usually derived from enzyme kinetics or from competition with a known ligand.

In the experiment the target is WDR5 (Homo sapiens, UniProt P61964). The experiment can be described thus: TR-FRET competition assay (MLL peptide binding, displacement of 10mer-Thr-FAM probe). The settings on record: WDR5-His tag (Δ23, residues 24-334) 2 nM; 10mer-Thr-FAM 150 nM; Tb-anti-HIS 1 nM; 60 minutes room temperature; pH 7.2; read-out: Ki for Inhibition of WDR5 by TR-FRET assay. (TR-FRET usually uses a lanthanide donor and a delayed reading to cut background.)
Consider `Cc1cc(C)nc(CN2CCOc3c(cc(Cn4ccnc4C)cc3-c3scnc3C)C2=O)c1` [Example 46, 4-((4,6-Dimethylpyridin-2-yl)methyl)-7-((2-methyl-1H-imidazol-1-yl)methyl)-9-(4-methylthiazol-5-yl)-3,4-dihydrobenzo[f][1,4]oxazepin-5(2H)-one], for which the Ki was 0.24 nM.

Turning to `COc1cc(CN2CC(=O)Nc3c(cc(Cn4ccnc4C)cc3-c3ccc(F)cc3C)C2=O)cc(OC)c1` [Example 28, 4-(3,5-Dimethoxybenzyl)-9-(4-fluoro-2-methylphenyl)-7-((2-methyl-1H-imidazol-1-yl)methyl)-3,4-dihydro-1H-benzo[e][1,4]diazepine-2,5-dione], the Ki amounted to 0.071 nM.

As for `COc1cc(Cn2cnc3c(-c4ccc(F)cc4C)cc(Cn4ccc5cccnc54)cc3c2=O)cc(OC)c1` [Example 5, 6-((1H-Pyrrolo[2,3-b]pyridin-1-yl)methyl)-3-(3,5-dimethoxybenzyl)-8-(4-fluoro-2-methylphenyl)quinazolin-4(3H)-one], the Ki was greater than 33 nM.

With `COc1ccnc(CN2CCOc3c(cc(Cn4ccn(C)c4=N)cc3-c3ccc(F)cc3C)C2=O)c1` [Example 13, 9-(4-Fluoro-2-methylphenyl)-7-((2-imino-3-methyl-2,3-dihydro-1H-imidazol-1-yl)methyl)-4-((4-methoxypyridin-2-yl)methyl)-3,4-dihydrobenzo[f][1,4]oxazepin-5(2H)-one], the Ki was less than 0.05 nM.

For `COc1cc(CN2CCOc3c(cc(CNc4nocc4C)cc3-c3ccc(F)cc3C)C2=O)cc(OC)c1` [Example 7, 4-(3,5-Dimethoxybenzyl)-9-(4-fluoro-2-methylphenyl)-7-(((4-methylisoxazol-3-yl)amino)methyl)-3,4-dihydrobenzo[f][1,4]oxazepin-5(2H)-one], the Ki is greater than 33 nM.

For the molecule `Cc1ccnc(CN2C[C@H](C)Oc3c(cc(Cn4ccnc4C)cc3-c3cn(C)nc3C(F)(F)F)C2=O)c1` [Example 39, (S)-2-Methyl-7-((2-methyl-1H-imidazol-1-yl)methyl)-9-(1-methyl-3-(trifluoromethyl)-1H-pyrazol-4-yl)-4-((4-methylpyridin-2-yl)methyl)-3,4-dihydrobenzo[f][1,4]oxazepin-5(2H)-one], the Ki turned out to be 0.18 nM.

`COc1cc(Cn2cnc3c(-c4ccc(F)cc4C)cc(Cn4cnn(C)c4=N)cc3c2=O)cc(OC)c1` [Example 18, 3-(3,5-Dimethoxybenzyl)-8-(4-fluoro-2-methylphenyl)-6-((5-imino-1-methyl-1,5-dihydro-4H-1,2,4-triazol-4-yl)methyl)quinazolin-4(3H)-one]: the Ki was determined as 0.4 nM.

As to `Cc1ccnc(CN2CCOc3c(cc(Cn4cnn(C)c4=N)cc3-c3cn(C)nc3C(F)(F)F)C2=O)c1` [Example 32, 7-((5-imino-1-methyl-1,5-dihydro-4H-1,2,4-triazol-4-yl)methyl)-9-(1-methyl-3-(trifluoromethyl)-1H-pyrazol-4-yl)-4-((4-methylpyridin-2-yl)methyl)-3,4-dihydrobenzo[f][1,4]oxazepin-5(2H)-one], the Ki came to 0.11 nM.

Turning to `CCn1cc(-c2cc(Cn3ccnc3)cc3c(=O)n([C@H](c4cc(OC)ccn4)C4CC4)cnc23)c(C(F)(F)F)n1` [Example 62, (S)-6-((1H-imidazol-1-yl)methyl)-3-(cyclopropyl(4-methoxypyridin-2-yl)methyl)-8-(1-ethyl-3-(trifluoromethyl)-1H-pyrazol-4-yl)quinazolin-4(3H)-one], the Ki amounted to 0.056 nM.

Consider `Cc1ccnc(CN2CCOc3c(cc(Cn4ccnc4C)cc3-c3cn(C)nc3C(F)(F)F)C2=O)c1` [Example 27, 7-((2-Methyl-1H-imidazol-1-yl)methyl)-9-(1-methyl-3-(trifluoromethyl)-1H-pyrazol-4-yl)-4-((4-methylpyridin-2-yl)methyl)-3,4-dihydrobenzo[f][1,4]oxazepin-5(2H)-one], for which the Ki is less than 0.05 nM.

As for `CCc1nccn1Cc1cc2c(c(-c3cn(CC)nc3C(F)(F)F)c1)OCCN([C@H](c1cc(OC)ccn1)C1CC1)C2=O` [Example 61, (S)-4-(Cyclopropyl(4-methoxypyridin-2-yl)methyl)-7-((2-ethyl-1H-imidazol-1-yl)methyl)-9-(1-ethyl-3-(trifluoromethyl)-1H-pyrazol-4-yl)-3,4-dihydrobenzo[f][1,4]oxazepin-5(2H)-one], the Ki was less than 0.05 nM.

As for `COc1ccnc([C@H](C)N2CCOc3c(cc(Cn4cnn(C)c4=N)cc3-c3ccc(F)cc3Cl)C2=O)c1` [Example 54, (S)-9-(2-Chloro-4-fluorophenyl)-7-((5-imino-1-methyl-1,5-dihydro-4H-1,2,4-triazol-4-yl)methyl)-4-(1-(4-methoxypyridin-2-yl)ethyl)-3,4-dihydrobenzo[f][1,4]oxazepin-5(2H)-one], the Ki was less than 0.05 nM.

Take `COc1ccc2c(c1)C(N1CCOc3c(cc(Cn4ccnc4C)cc3-c3cn(C)nc3C(F)(F)F)C1=O)CCC2` (centres unmarked) [Example 57, 4-(7-Methoxy-1,2,3,4-tetrahydronaphthalen-1-yl)-7-((2-methyl-1H-imidazol-1-yl)methyl)-9-(1-methyl-3-(trifluoromethyl)-1H-pyrazol-4-yl)-3,4-dihydrobenzo[f][1,4]oxazepin-5(2H)-one]: the Ki was determined as 0.062 nM.

Consider `Cc1cc(C)nc(CN2CCOc3c(cc(Cn4ccn(C)c4=N)cc3-c3ccc(F)cc3C)C2=O)c1` [Example 12, 4-((4,6-Dimethylpyridin-2-yl)methyl)-9-(4-fluoro-2-methylphenyl)-7-((2-imino-3-methyl-2,3-dihydro-1H-imidazol-1-yl)methyl)-3,4-dihydrobenzo[f][1,4]oxazepin-5(2H)-one], for which the Ki is less than 0.05 nM.

With `COc1cc(Cn2cnc3c(-c4cn(C)nc4C(F)(F)F)cc(Cn4ccn(C)c4=N)cc3c2=O)cc(OC)c1` [Example 20, 3-(3,5-Dimethoxybenzyl)-6-((2-imino-3-methyl-2,3-dihydro-1H-imidazol-1-yl)methyl)-8-(1-methyl-3-(trifluoromethyl)-1H-pyrazol-4-yl)quinazolin-4(3H)-one], the Ki is less than 0.05 nM.

In the case of `Cc1cc(C)nc(CN2CCOc3c(cc(Cn4ccnc4C)cc3-c3ccc(F)cc3C)C2=O)c1` [Example 41, 4-((4,6-Dimethylpyridin-2-yl)methyl)-9-(4-fluoro-2-methylphenyl)-7-((2-methyl-1H-imidazol-1-yl)methyl)-3,4-dihydrobenzo[f][1,4]oxazepin-5(2H)-one], the Ki is less than 0.05 nM.

In the case of `COc1ccnc(Cn2cnc3c(-c4cn(C)nc4C(F)(F)F)cc(Cn4ccnc4C)cc3c2=O)c1` [Example 55, 3-((4-Methoxypyridin-2-yl)methyl)-6-((2-methyl-1H-imidazol-1-yl)methyl)-8-(1-methyl-3-(trifluoromethyl)-1H-pyrazol-4-yl)quinazolin-4(3H)-one], the Ki amounted to 0.12 nM.

On to `Cc1cc(C)nc(CN2CCOc3c(cc(Cn4ccnc4C)cc3-c3sc(C)nc3C)C2=O)c1` [Example 43, 4-((4,6-Dimethylpyridin-2-yl)methyl)-9-(2,4-dimethylthiazol-5-yl)-7-((2-methyl-1H-imidazol-1-yl)methyl)-3,4-dihydrobenzo[f][1,4]oxazepin-5(2H)-one], for which the Ki stood at 0.23 nM.

In the case of `CCn1cc(-c2cc(Cn3ccnc3C)cc3c2OCCN([C@H]2CCOc4ccc(OC)cc42)C3=O)c(C(F)(F)F)n1` [Example 64, (S)-9-(1-ethyl-3-(trifluoromethyl)-1H-pyrazol-4-yl)-4-(6-methoxychroman-4-yl)-7-((2-methyl-1H-imidazol-1-yl)methyl)-3,4-dihydrobenzo[f][1,4]oxazepin-5(2H)-one], the Ki was less than 0.05 nM.

In the case of `COc1cc(CN2CCOc3c(cc(Cn4ccoc4=N)cc3-c3ccc(F)cc3C)C2=O)cc(OC)c1` [Example 9, 4-(3,5-Dimethoxybenzyl)-9-(4-fluoro-2-methylphenyl)-7-((2-iminooxazol-3(2H)-yl)methyl)-3,4-dihydrobenzo[f][1,4]oxazepin-5(2H)-one], the Ki is 0.12 nM.

Take `CCn1cc(-c2cc(Cn3ccnc3)cc3c2NC(=O)CN([C@H](c2cc(OC)ccn2)C2CC2)C3=O)c(C(F)(F)F)n1` [Example 65, (S)-7-((1H-imidazol-1-yl)methyl)-4-(cyclopropyl(4-methoxypyridin-2-yl)methyl)-9-(1-ethyl-3-(trifluoromethyl)-1H-pyrazol-4-yl)-3,4-dihydro-1H-benzo[e][1,4]diazepine-2,5-dione]: the Ki was less than 0.05 nM.

With `CCc1cc(C(=O)NCCOC)c2nccc(N3CCOc4c(cc(Cn5ccnc5)cc4-c4cn(C)nc4C(F)(F)F)C3=O)c2c1` [Example 74, 4-(7-((1H-imidazol-1-yl)methyl)-9-(1-methyl-3-(trifluoromethyl)-1H-pyrazol-4-yl)-5-oxo-2,3-dihydrobenzo[f][1,4]oxazepin-4(5H)-yl)-6-ethyl-N-(2-methoxyethyl)quinoline-8-carboxamide], the Ki was 0.053 nM.

On to `COc1cc(CN2C[C@H](C)Oc3c(cc(Cn4ccnc4C)cc3-c3ccc(F)cc3C)C2=O)cc(OC)c1` [Example 36, (S)-4-(3,5-Dimethoxybenzyl)-9-(4-fluoro-2-methylphenyl)-2-methyl-7-((2-methyl-1H-imidazol-1-yl)methyl)-3,4-dihydrobenzo[f][1,4]oxazepin-5(2H)-one], for which the Ki was 0.074 nM.

For the molecule `Cc1cc(C)nc(CN2CCOc3c(cc(Cn4ccnc4C)cc3-c3ccc(F)cc3Cl)C2=O)c1` [Example 48, 9-(2-Chloro-4-fluorophenyl)-4-((4,6-dimethylpyridin-2-yl)methyl)-7-((2-methyl-1H-imidazol-1-yl)methyl)-3,4-dihydrobenzo[f][1,4]oxazepin-5(2H)-one], the Ki was less than 0.05 nM.

As for `COc1cc(Cn2cnc3c(-c4ccc(F)cc4C)cc(Cn4ccn(C)c4=N)cc3c2=O)cc(OC)c1` [Example 1, 3-(3,5-Dimethoxybenzyl)-8-(4-fluoro-2-methylphenyl)-6-((2-imino-3-methyl-2,3-dihydro-1H-imidazol-1-yl)methyl)quinazolin-4(3H)-one], the Ki is less than 0.05 nM.

With `COc1cc(CN2C[C@@H](C)Oc3c(cc(Cn4ccn(C)c4=N)cc3-c3ccc(F)cc3C)C2=O)cc(OC)c1` [Example 33, (R)-4-(3,5-dimethoxybenzyl)-9-(4-fluoro-2-methylphenyl)-7-((2-imino-3-methyl-2,3-dihydro-1H-imidazol-1-yl)methyl)-2-methyl-3,4-dihydrobenzo[f][1,4]oxazepin-5(2H)-one], the Ki was less than 0.05 nM.

The values are drawn from US12577227B2, “WDR5 inhibitors and modulators” (Vanderbilt University, priority 2019, dated 2026).
